Out of some 310,000 compounds screened, about 2,200 (0.71%) showed an effect of 50% or more. The effect is printed as a negative number. This is one part of the list.
biological target: human ether-à-go-go-related gene (hERG) potassium channel (human, UniProt Q12809); test: primary screen, population patch clamp on CHO cells stably expressing hERG
Sequence (Q12809 whole entry, looked up): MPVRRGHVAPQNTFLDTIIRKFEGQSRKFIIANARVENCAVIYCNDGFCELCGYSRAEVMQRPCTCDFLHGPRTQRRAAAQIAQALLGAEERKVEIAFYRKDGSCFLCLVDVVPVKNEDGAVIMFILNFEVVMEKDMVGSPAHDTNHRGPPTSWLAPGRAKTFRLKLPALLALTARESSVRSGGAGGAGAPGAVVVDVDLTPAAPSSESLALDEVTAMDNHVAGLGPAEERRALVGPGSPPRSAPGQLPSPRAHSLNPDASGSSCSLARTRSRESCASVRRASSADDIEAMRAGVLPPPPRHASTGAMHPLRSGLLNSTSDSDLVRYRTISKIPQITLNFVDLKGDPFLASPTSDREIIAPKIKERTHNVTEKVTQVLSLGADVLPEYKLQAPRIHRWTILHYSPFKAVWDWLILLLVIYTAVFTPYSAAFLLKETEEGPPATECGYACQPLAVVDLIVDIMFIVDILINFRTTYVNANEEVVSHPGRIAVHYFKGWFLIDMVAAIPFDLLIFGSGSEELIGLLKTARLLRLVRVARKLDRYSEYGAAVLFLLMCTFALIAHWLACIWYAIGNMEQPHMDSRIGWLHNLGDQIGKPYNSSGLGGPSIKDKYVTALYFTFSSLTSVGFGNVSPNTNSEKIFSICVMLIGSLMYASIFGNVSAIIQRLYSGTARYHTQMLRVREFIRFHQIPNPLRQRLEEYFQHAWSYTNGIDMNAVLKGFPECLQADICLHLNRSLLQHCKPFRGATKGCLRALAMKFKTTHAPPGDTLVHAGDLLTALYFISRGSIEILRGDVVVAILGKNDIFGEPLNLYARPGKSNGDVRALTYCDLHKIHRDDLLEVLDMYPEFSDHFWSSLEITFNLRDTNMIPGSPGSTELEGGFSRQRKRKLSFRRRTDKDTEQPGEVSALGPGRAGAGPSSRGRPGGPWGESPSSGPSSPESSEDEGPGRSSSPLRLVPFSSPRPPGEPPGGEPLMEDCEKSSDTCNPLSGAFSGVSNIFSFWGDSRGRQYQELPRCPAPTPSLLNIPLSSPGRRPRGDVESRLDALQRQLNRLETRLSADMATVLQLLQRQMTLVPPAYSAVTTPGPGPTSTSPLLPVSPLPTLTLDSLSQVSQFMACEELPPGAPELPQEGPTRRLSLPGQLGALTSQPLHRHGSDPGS

SMILES | hERG current change (%, negative = inhibition) at 1uM
CCc1cc(Cn2nc(-c3ccccc3)cc2C(=O)NCc2cccs2)on1 | -2.22%
COCc1cc(=O)n2[nH]cc(-c3ccsc3)c2n1 | 6.74%
CCOc1ccc(-n2c(C)nc3cc(C(=O)NCc4ccc5c(c4)OCO5)ccc32)cc1 | -4.26%
O=C(CCC(=O)c1cccs1)OCc1nnc(-c2ccccc2)o1 | 10.6%
COc1cccc(Cn2c(NCc3ccco3)nc3c2c(=O)n(C)c(=O)n3C)c1 | -2.28%
O=C(c1ccc(Br)s1)N1CCCC1 | 0.124%
O=C(CC1C(=O)NCCN1Cc1ccccc1)NCCCOc1cccnc1 (stereo not drawn) | 13.7%
Nc1nnc(Cc2ccccc2)s1 | -8.31%
CCOC(=O)c1c(NC(=O)CCC(=O)O)sc2c1CC(C)(C)OC2 | 13.4%
Cc1cc(F)ccc1NC(=S)NCCc1ccccc1 | 17.7%
CC(C)(C)SCCNC(=O)/C=C/c1ccc([N+](=O)[O-])cc1 | -11%
CCCN=C(C)c1c(-c2ccccc2)[nH]n(-c2nc3ccccc3s2)c1=O | 7.75%
CCCc1[nH][nH]c(=O)c1C(c1cccc(Cl)c1)C(C#N)C#N (stereo not drawn) | 10.7%
COc1ccc(CCC(=O)Nc2nc(-c3ccncc3)cs2)cc1 | -7.84%
CC(C)Cn1c(C(C)C)nc([N+](=O)[O-])c1Sc1ccc(Cl)cn1 | 11.4%
CN(C)CC(O)CN(c1ccccc1)c1ccccc1 (stereo not drawn) | -25.6%
CC(c1ccccc1)n1cc(C(=O)NCCN2CCOCC2)nn1 (stereo not drawn) | 10.2%
CCc1cc2c(=O)n(-c3ccccc3)c(SCC(N)=O)nc2s1 | 5.57%
Cc1cc(C(=O)Nc2cccc3ccccc23)co1 | 4.84%
CC(NC(=O)COc1ccccc1-c1ccccc1)c1ccccc1 (stereo not drawn) | 13.2%
Cc1cc(C)c(S(C)(=O)=O)c(Oc2ccc(C(C)(C)C)cc2)n1 | 10.7%
Cc1cc(Cl)ccc1NC(=O)CN1C(=O)CSc2ccc(S(=O)(=O)N3CCOCC3)cc21 | 6.8%
CC(c1ccon1)N(C)C(=O)CCc1nnc(C2(c3ccc(Cl)cc3)CCC2)o1 (stereo not drawn) | 11.1%

SMILES | hERG current change (%, negative = inhibition) at 1uM
NC(=O)c1ccc(NCCCN2CCOCC2)c([N+](=O)[O-])c1 | 0.862%
CC(C)N1CCN(Cc2ccccc2-c2ccco2)CC1CCO (stereo not drawn) | -2.31%
COc1ccc(NC(=O)c2nc(SC)ncc2Cl)cc1 | 1.09%
CCCOc1ccc(C(=O)Nc2nc(C)c(Cc3ccc4c(c3)OCO4)s2)cc1 | 1.56%
O=C(/C=C\c1ccco1)NC(=S)Nc1ccccc1O | 13.9%
Cc1cc(C)nc(-n2nc(C)cc2Nc2ccccc2)n1 | 3.45%
Cc1ccc(S(=O)(=O)N2CCN(C(=O)CSc3nc4ccccc4o3)C2)cc1 | -8.31%
O=C(Nc1ccc(F)cc1)c1ccc2snnc2c1 | 0.259%
Nc1ccc2c(c1)N=[N+]([O-])c1cc(N)ccc1C2 | 14.4%
Cn1c(CNC(=O)c2cccs2)n[nH]c1=S | 12.8%
O=C(c1cc(F)c(F)cc1Cl)N1CCCc2ccccc21 | 6.17%
Cc1cc(SCC(=O)NCCN2C(=O)CSC2=O)nc2c(C)cccc12 | 7.76%
COc1cccc(C2=NN(S(C)(=O)=O)C(c3cccs3)C2)c1 (stereo not drawn) | 8.75%
COc1cccc(NC(=S)/C(=C(\[O-])c2ccc(OC(F)F)cc2)[n+]2ccccc2)c1 | 6.96%
O=c1c2ccc(Cl)cc2[nH]c(=S)n1Cc1cccnc1 | 13.1%
Cc1nn(C)cc1C1C2=C(CC(C)(C)CC2=O)N(c2ccccc2)C2=C1C(=O)CC(C)(C)C2 | 4.17%
NC(=S)N=Nc1c(O)[nH]c2c(Br)cc(Br)cc12 | 12.7%
O=C(O)CCn1c2c(c3ccccc31)CCCC2 | 19.5%
CCOC(=O)N1CCN(C2CC(=O)N(c3ccc(Cl)c(Cl)c3)C2=O)CC1 (stereo not drawn) | 3.35%
COc1ccc(NC(=O)CCNC(C)=O)cc1NS(=O)(=O)c1ccc(F)cc1 | 9.74%
C=CCn1c(SCC(=O)c2ccc(Cl)cc2)nnc1-c1ccc2c(c1)OCO2 | 3.97%
CC(C)(C)NC(=O)[C@H]1CC[C@H]2[C@@H]3CC[C@H]4NC(=O)C=C[C@]4(C)[C@H]3CC[C@]12C | 4.1%
Cc1cc2oc(=O)cc(CN3CCC(C)CC3)c2c(C)c1Cl | 6%

SMILES | hERG current change (%, negative = inhibition) at 1uM
C=CCn1c(CCn2c3ccccc3c3ccccc32)n[nH]c1=S | 18.7%
Cc1ccc(-c2csc(NC(=O)Cn3cnc4c3c(=O)n(C)c(=O)n4C)n2)cc1C | 9.65%
CCOC(=O)C1(CCOc2ccccc2)CCN(Cc2ccc(C)s2)CC1 | -65.4%
O=C(CSc1ccc(F)cc1)NCCSc1ccccc1 | 4.63%
O=C(CNC(=O)c1cccc(Br)c1)N/N=C/c1ccc2c(c1)OCO2 | 21.7%
Cc1cccc(C)c1OCc1nnc(SCC(=O)Nc2ccc(N3CCOCC3)cc2)o1 | 13.3%
COc1ccc(-c2csc(NC(=O)c3c(OC)cccc3OC)n2)cc1 | 12.2%
CCc1c(O)nc(SCC(=O)N(CC)CC)[nH]c1=O | 15.2%
Cc1cc(C)c2nc(SCc3ccc([N+](=O)[O-])cc3)nc(C)c2c1 | 2.55%
O=C(Nc1ccc2c(c1)OCCO2)C1CCCN(S(=O)(=O)c2cccc3nsnc23)C1 (stereo not drawn) | 7.11%
Cc1ccccc1NC(=O)CCN1CCN(C/C=C/c2ccccc2)CC1 | -72%
COc1cc(NC(=O)CCc2c(C)nn(-c3ccc(N4CCOCC4)nn3)c2C)cc(OC)c1OC | 12.3%
COc1cc2c(cc1OC)C(COc1ccc([N+](=O)[O-])cc1)NCC2 (stereo not drawn) | -43.6%
Cc1cc(C)n(-c2nc3ccccc3c3nc(C)nn23)n1 | 7.9%
N#Cc1ccccc1CSc1nc2ncc(Br)cc2[nH]1 | -2.45%
COc1ccccc1NS(=O)(=O)c1ccc(Cl)c(NC(=O)c2sc3cc(Cl)ccc3c2Cl)c1 | 15.1%
Cc1cc(SCC(=O)Nc2ccccc2)nc(C)n1 | 6.28%
Cc1ccc(CNC(=O)C2CCCN(Cc3cnn(-c4ccccc4)c3-n3cccc3)C2)cc1 (stereo not drawn) | -20.3%
CCOC(=O)c1oc2cc(O)ccc2c(=O)c1-c1csc(C)n1 | 12.1%
COc1ccc(OCCC(=O)NCc2ccccc2)cc1 | 7.29%
Cc1c(OCC(=O)NCCN2CCOCC2)ccc2c3c(c(=O)oc12)CCC3 | -0.585%
Cc1nn(Cc2ccccc2Cl)c(Cl)c1C(=O)OCC(=O)NC(=O)NC1CCCCC1 | 14.6%
CCN(CC)C(=O)CSC1=N/C(=C/c2ccco2)C(=O)N1c1ccc(OC)c(Cl)c1 | 9.46%

SMILES | hERG current change (%, negative = inhibition) at 1uM
Cc1ccc(-c2n[nH]c(=O)c3ccccc23)cc1S(=O)(=O)NCCN1CCOCC1 | 5.01%
Cc1ccc(C(=O)c2c(NC(=O)c3cccnc3)sc3c2CCCC3)cc1 | 0.762%
COc1cnc(NS(=O)(=O)c2ccc(N)cc2)nc1 | 12.1%
COc1ccc(-c2nc3ccc(C)cn3c2NCc2ccc3c(c2)OCO3)cc1 | -15%
CCCCCN=CC1=C(O)CC(c2ccccc2)CC1=O (stereo not drawn) | 7.43%
COc1ccc2cc(C3=CC(=O)C[C@H](c4ccc5c(c4)OCO5)C3)ccc2c1 | 12.5%
Cc1cccc(-n2nnnc2SCc2csc(-c3ccccc3)n2)c1 | 10.5%
CCOC(=O)c1[nH]c(C)c(C(=O)NCC2CCCO2)c1C (stereo not drawn) | 10.3%
O=C(CSc1nnc(-c2ccncc2)o1)Nc1nncs1 | 15.3%
COC(=O)c1ccc(CS(=O)(=O)c2ccc(C)cc2)cc1 | 12.6%
CCOc1ncccc1C(=O)OCC(=O)Nc1ccc(C(C)C)cc1 | 15.4%
COc1ccc(-c2nn(-c3ccccc3C)cc2CNC(C)Cn2cncn2)cc1F (stereo not drawn) | -9.1%
Cc1cc(F)ccc1NCc1cccnc1 | 17.3%
CCC(CC)NC1CCCCC1OC (stereo not drawn) | 13%
CCCOC(=O)CCCN1C(=O)/C(=C2\SC(=S)N(CCCC(=O)OCCC)C2=O)SC1=S | 16%
COc1cc2c(cc1NC(=O)CSc1nc3cc(Cl)ccc3s1)oc1ccccc12 | 12.7%
Cc1ccc(S(=O)(=O)NC2(C(F)(F)F)NC(=O)N(c3ccc(F)cc3)C2=O)cc1 (stereo not drawn) | 5.29%
C=CCSc1nc2ccccc2n1S(=O)(=O)c1ccc(Cl)cc1 | 11.9%
CC(=O)c1ccc(OCC(O)CN2CCC(C)CC2)cc1.Cl (stereo not drawn) | -0.759%
COc1ccc(C2CC(c3ccccc3)=NN2c2ccc(Cl)c(C(=O)O)c2)cc1 (stereo not drawn) | 7.92%
CNC(=O)CSc1nnc(-c2ccc3c(c2)OCO3)n1C | 15.9%
